Assay results as given in the supplement of paper PMC10126150.
Sequences with one replicate were seen in a single cluster, so their values are uncertain.

Tested on: ATP
Assay: switch fluorescence ratio, 500 uM ATP over buffer (Cy3 cluster intensity, sum of 5 cycles each) (fold (ratio)); higher = stronger signal-on switching upon ATP binding; sequences stand for … in TCGTCGGCAGCGTCAGATGTGTATAAGAGACAGTTTTTTTTTTTTTTTTTTTTTTTTT…TC
Details: aptamer strand: ATP DNA aptamer (quencher-CACCTGGGGGAGTATTGCGGAGGAAGG + anchor), 100 nM annealed; ATP concentration: 500 uM; one replicate
Method in brief: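 After annealing to 100 nM quencher-labelled ATP aptamer, Cy3-labelled switching-strand clusters on a modified Illumina MiSeq flow-cell were imaged in selection buffer. A second image followed after 15 min with 500 uM ATP at 22 °C, and five such buffer/ATP cycles were done, each separated by NaOH stripping and re-annealing. The fluorescence ratio, averaged per switch-domain sequence, is summed target-cycle over summed buffer-cycle Cy3 intensity per cluster, with clusters outside 100-1000 RFU excluded.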
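Also: ATP exposure 15 min at 22 °C before imaging.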

Sequence | switch fluorescence ratio
GAAAAATGCT | 0.964
GGGGGTACG | 1.02
GGGAGATAGT | 1
ACATACTTAT | 1.34
TGCGCGATAT | 3.75
TCTAAAGGGG | 1.28
ACTTTCTGGG | 0.981
TCCCGATGAT | 1.03
AATCGCTTTC | 1.06
TGACCACTCT | 1.04
CCGAGGGCGT | 1.09
GTGGCATTCA | 1
GGTGATGGAA | 1.06
TCAGTGCTCG | 0.951
CTTGGACTTT | 0.94
ATGAAGGTAT | 1
AAGTTACCCG | 1.01
TGACAAAAAA | 0.968
AGCATGGGTT | 0.999
AGCGAGGTT | 1.01
TGTGTTGTAC | 1.03
ACGTAGTGAT | 1.04
GCTATCTGA | 1
ATCGCAGTTT | 2.16
CTCCATCAAG | 1.55
GGTGGTTA | 0.965

Sequence | switch fluorescence ratio
GGTCACGGTG | 1.01
TTATAGGGGG | 1.04
TGAACCGGT | 1.04
TATGGTTTAT | 0.945
ACTGTCTCAT | 0.974
TACTTCTCGG | 1.04
AATGAGTGC | 1.01
TTACATCGGC | 1.02
TTTCTCAGGT | 1.06
TTAATAAAAG | 1.01
ATAATTCTTT | 1.03
TGTCACGTTG | 1.07
GGCTAACACG | 1.01
TGAAGAAATC | 1.11
GAATTCAAGC | 1.03
AATTTTCTGG | 0.993
TTTAAAACAT | 1.24
AATGAATGAT | 1.03
ATGGCGGAGC | 1.03
AGTTTACGA | 0.994
TCAGGGGAAT | 0.978
CGACTATTA | 1.03
GCCTTGAAAG | 0.991
ATACTTGGGC | 0.987
GTCATCACTT | 1.06
ACCGGGAGAC | 1.75

Sequence | switch fluorescence ratio
GCAATAGGCT | 1.19
CTTATTGAAA | 1.14
AGTGTACTTA | 1.04
TCGTGCGTAC | 1.67
TATAGTCCAA | 1.04
AGGGTCATCC | 1
TCCAGCCAGG | 2.26
TGCTTGGCCC | 1.04
GGTCCAATGT | 0.934
GTTAAACCTT | 2.36
ATGCGTTGTT | 1.01
CGCTGGGGAA | 1.02
CACAGTCACA | 1.14
TCGGACTGTG | 0.983
GACCCCCTGT | 1.17
ATGTTCTAGC | 1.03
GCTATACTGG | 1.24
CAGTTAAATC | 0.93
TGTCTAGGGA | 1.1
ACGAGTATTT | 1.02
AATGTCTACT | 1.02
ACGTGCTCTA | 1.05
AGGAAACCCA | 1.02
CCGCAGGA | 1.24
CTTCCTTCTG | 1.3
CAAGTCTGTG | 0.922

Sequence | switch fluorescence ratio
TTTCACGTG | 1.01
CGTTTTCCG | 0.917
TACGGTCTCC | 1
GCCCTGGGCA | 0.976
CAAAGCAGCA | 1.07
GGACATCGTG | 1.02
GTCTTAGTGA | 0.944
TATTTTAAT | 0.968
TACTCACCGG | 1.48
GACACTTTTT | 1.02
ACTGATAATT | 1.02
GTTGGTCAGT | 0.981
TAACCGGCAG | 1.07
CAAAGAAGAG | 1.01
TCAGCGTCCG | 0.945
TTTCAGAGAG | 0.967
ACGGTGCAGC | 1.07
TCGAATTAGG | 0.994
CAGGCAGGGC | 1.03
CGCCGGATAT | 1.13
TGAAACGGCT | 0.913
TAACAAAAGA | 0.965
AGCGGGACAC | 1.03
GTCTTTAAAC | 1
AGAATTCGCA | 1.02
ATTCATACCG | 0.982

Sequence | switch fluorescence ratio
GAGGTCCTGT | 0.98
ATAGGTTTT | 1.13
GGTCTATTA | 0.994
CACGAGTGGT | 1.02
AATCACCATA | 1.04
AGTAATTTCT | 0.984
TTTTTTCGG | 0.96
TTGCGATCTA | 1.03
ACAGTTTGGT | 1.04
GTTGCATTTT | 1.02
GATCTACCCG | 1.02
GATGTGGATG | 1.03
ACGGCATACA | 1.32
ACCCATACCT | 1.37
TGCATCTCTT | 2.59
AATCTCGCTA | 1.13
CGCCACAAGT | 1.12
CAGACGGTCT | 0.972
TTTGAAATAG | 0.993
GAACTTTTCG | 1.11
AGCAGGGTAA | 1.05
ACAGCTTGGC | 1.05
TTGGGCAGCG | 1.04
TATCGTAA | 1
ATATCACAGA | 0.995
AAAATTCCTG | 1.05

Sequence | switch fluorescence ratio
GGTCCGTTGT | 0.968
GCTTAAAAGA | 0.981
GGTCCCAACC | 0.99
GTCCTGGGCG | 1
ACCAGCTCTG | 1
CTAGTGTTA | 0.995
AATCGATCAC | 0.995
TCAACGTGG | 0.955
ACCTCCAGAT | 1.42
CCTGGTCTCT | 0.982
TTCGAAGCCA | 1.61
CAATTTAACG | 0.964
CGTTTGAAAG | 0.962
TTGCGAGTAT | 0.966
TTTAGGGTAG | 0.972
GTATGCTATG | 1.01
CACCGGGTT | 1.04
TGGAGGTGGA | 1.03
ATAAGAGATT | 1.07
ACTTGGTTAG | 1.02
TAAACGTGTG | 0.984
AGTTTTAGGC | 0.991
GATAGAATTC | 0.99
GCTACTATGT | 0.986
TAAAGTATGA | 0.996
CGAGTGCTAG | 1.04

Sequence | switch fluorescence ratio
ACTTTCGGCG | 1.09
CTAAGAGAAA | 0.975
ATGTCGACGT | 1.07
GGCTTAGGTT | 0.98
CATGCGCGGT | 1.54
AGGTGCGCGG | 1
CTTTTTTTCT | 0.984
TGTGTAGCGC | 0.996
GAGCTTAAGG | 0.97
TGGCTAGGT | 0.985
CATGCCTTAT | 1.02
AATTGGTACT | 1.01
GTTCGGTAA | 1.12
CAGTGCCCGG | 1.03
AGCTCGATCC | 0.97
TCGTCTCTGA | 0.991
GAGATGTTGA | 0.961
TCACGTGAGC | 1.05
TCATTAACTT | 1.04
CTGCTGCATC | 1.44
GAGGTGGACT | 1.03
TCTGCAATCA | 4.08
GAGGCGGTGT | 0.996
GCTTAGTCCA | 1.03
ATGATCACGC | 1.08
AATCGGACTG | 0.943

Sequence | switch fluorescence ratio
GAGGGCCAA | 1
GGCGTTGGAA | 0.975
GTGACGCTGG | 1.04
TTTCGGGCTA | 0.992
ACGAGTAAAT | 1
AGTCACGGCA | 1.08
AGAAAAGAAA | 0.947
ATCTTATATT | 0.978
CGTAAGTGTG | 1.02
TTCTGGATTT | 0.985
CTATGGCATC | 1.08
TGACCGACAG | 1
TCTCGCTTTC | 2.49
GTGTTGGCAC | 0.998
TACAGTTAC | 1.18
TCTGACTCGC | 1.78
CGACTTAGGC | 0.916
TAGGGATGGC | 0.992
GACACTGGGG | 1.04
